Residue numbers refer to the chain shown, from its start.
T1: C4.4a (Homo sapiens, UniProt O95274 31-326)
T1 sequence (looked up): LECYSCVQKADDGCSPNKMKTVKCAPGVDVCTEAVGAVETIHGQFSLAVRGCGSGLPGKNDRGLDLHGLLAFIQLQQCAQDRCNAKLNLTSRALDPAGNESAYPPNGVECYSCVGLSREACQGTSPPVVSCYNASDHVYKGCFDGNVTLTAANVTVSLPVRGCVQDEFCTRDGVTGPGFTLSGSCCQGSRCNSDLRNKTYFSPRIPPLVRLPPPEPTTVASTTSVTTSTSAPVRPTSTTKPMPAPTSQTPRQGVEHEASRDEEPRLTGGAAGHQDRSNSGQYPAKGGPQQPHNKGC

B1: Example 163 (antibody, human IgG1, lambda)
heavy: QVELLESGGGLVQPGGSLRLSCAASGFTFSNAWMSWVRQAPGKGLEWVSYISSSGSTIYYADSVKGRFTISRDNSKNTLYLQMNSLRAEDTAVYYCAREGLWAFDYWGQGTLVTVSS[in this place human IgG1 constant region]
light: DIVLTQPPSASGTPGQRVTISCTGSSSNIGAGYVVHWYQQLPGTAPKLLIYDNNKRPSGVPDRFSGSKSGTSASLAISGLRSEDEADYYCAAWDDRLNGPVFGGGTKLTVLGQPKAAPSVTLFPPSSEELQANKATLVCLISDFYPGAVTVAWKGDSSPVKAGVETTTPSKQSNNKYAASSYLSLTPEQWKSHRSYSCQVTHEGSTVEKTVAPTECS
modifications: linker-toxophore on cysteine S
B2: Example 177 (antibody, human IgG1, lambda)
heavy: B1 heavy
light: B1 light
modifications: linker-toxophore on cysteine S
B3: Example 188 (antibody, human IgG1, lambda)
heavy: B1 heavy
light: B1 light
modifications: linker-toxophore on cysteine S
B4: Example 190 (antibody, human IgG1, lambda)
heavy: B1 heavy
light: B1 light
modifications: linker-toxophore on cysteine S
B5: Example 194 (antibody, human IgG1, lambda)
heavy: B1 heavy
light: B1 light
modifications: linker-toxophore on cysteine S
B6: Example 195 (antibody, human IgG1, lambda)
heavy: B1 heavy
light: B1 light
modifications: linker-toxophore on cysteine S
B7: Example 213 (antibody, human IgG1, lambda)
heavy: B1 heavy with Q1E, E3Q
light: B1 light with D1E, I2S, A10V, T13A, G155A
modifications: linker-toxophore on cysteine S
B8: Example 216 (antibody, human IgG1, lambda)
heavy: B1 heavy with Q1E, E3Q
light: B1 light with D1E, I2S, A10V, T13A, G155A
modifications: linker-toxophore on cysteine S
B9: Example 218 (antibody, human IgG1, lambda)
heavy: B1 heavy with Q1E, E3Q
light: B1 light with D1E, I2S, A10V, T13A, G155A
modifications: linker-toxophore on cysteine S
B10: Example 230 (antibody, human IgG1, lambda)
heavy: B1 heavy with Q1E, E3Q
light: B1 light with D1E, I2S, A10V, T13A, G155A
modifications: linker-toxophore on cysteine S
B11: Example 242 (antibody, human IgG1, lambda)
heavy: B1 heavy with Q1E, E3Q
light: B1 light with D1E, I2S, A10V, T13A, G155A
modifications: linker-toxophore on cysteine S
B12: Example 243 (antibody, human IgG1, lambda)
heavy: B1 heavy with Q1E, E3Q
light: B1 light with D1E, I2S, A10V, T13A, G155A
modifications: linker-toxophore on lysine NH
B13: Example 244 (antibody, human IgG1, lambda)
heavy: B1 heavy with Q1E, E3Q
light: B1 light with D1E, I2S, A10V, T13A, G155A
modifications: linker-toxophore on cysteine S
B14: Example 245 (antibody, human IgG1, lambda)
heavy: B1 heavy with Q1E, E3Q
light: B1 light with D1E, I2S, A10V, T13A, G155A
modifications: linker-toxophore on cysteine S
B15: Example 246 (antibody, human IgG1, lambda)
heavy: B1 heavy with Q1E, E3Q
light: B1 light with D1E, I2S, A10V, T13A, G155A
modifications: linker-toxophore on cysteine S
B16: Example 247 (antibody, human IgG1, lambda)
heavy: B1 heavy with Q1E, E3Q
light: B1 light with D1E, I2S, A10V, T13A, G155A
modifications: linker-toxophore on cysteine S
B17: Example 248 (antibody, human IgG1, lambda)
heavy: B1 heavy with Q1E, E3Q
light: B1 light with D1E, I2S, A10V, T13A, G155A
modifications: linker-toxophore on lysine NH
B18: Example 253 (antibody, human IgG1, lambda)
heavy: B1 heavy with Q1E, E3Q
light: B1 light with D1E, I2S, A10V, T13A, G155A
modifications: linker-toxophore on lysine NH
B19: Example 254 (antibody, human IgG1, lambda)
heavy: B1 heavy with Q1E, E3Q
light: B1 light with D1E, I2S, A10V, T13A, G155A
modifications: linker-toxophore on cysteine S
B20: Example 255 (antibody, human IgG1, lambda)
heavy: B1 heavy with Q1E, E3Q
light: B1 light with D1E, I2S, A10V, T13A, G155A
modifications: linker-toxophore on cysteine S
B21: Example 256 (antibody, human IgG1, lambda)
heavy: B1 heavy with Q1E, E3Q
light: B1 light with D1E, I2S, A10V, T13A, G155A
modifications: linker-toxophore on cysteine S
B22: Example 257 (antibody, human IgG1, lambda)
heavy: B1 heavy with Q1E, E3Q
light: B1 light with D1E, I2S, A10V, T13A, G155A
modifications: linker-toxophore on cysteine S
B23: Example 258 (antibody, human IgG1, lambda)
heavy: B1 heavy with Q1E, E3Q
light: B1 light with D1E, I2S, A10V, T13A, G155A
modifications: linker-toxophore on lysine NH
B24: Example 259 (antibody, human IgG1, lambda)
heavy: B1 heavy with Q1E, E3Q
light: B1 light with D1E, I2S, A10V, T13A, G155A
modifications: linker-toxophore on cysteine S
B25: Example 260 (antibody, human IgG1, lambda)
heavy: B1 heavy with Q1E, E3Q
light: B1 light with D1E, I2S, A10V, T13A, G155A
modifications: linker-toxophore on cysteine S
B26: Example 261 (antibody, human IgG1, lambda)
heavy: B1 heavy with Q1E, E3Q
light: B1 light with D1E, I2S, A10V, T13A, G155A
modifications: linker-toxophore on lysine NH
B27: Example 262 (antibody, human IgG1, lambda)
heavy: B1 heavy with Q1E, E3Q
light: B1 light with D1E, I2S, A10V, T13A, G155A
modifications: linker-toxophore on lysine NH
B28: Example 263 (antibody, human IgG1, lambda)
heavy: B1 heavy with Q1E, E3Q
light: B1 light with D1E, I2S, A10V, T13A, G155A
modifications: linker-toxophore on lysine NH
B29: Example 264 (antibody, human IgG1, lambda)
heavy: B1 heavy with Q1E, E3Q
light: B1 light with D1E, I2S, A10V, T13A, G155A
modifications: linker-toxophore on lysine NH
B30: Example 265 (antibody, human IgG1, lambda)
heavy: B1 heavy with Q1E, E3Q
light: B1 light with D1E, I2S, A10V, T13A, G155A
modifications: linker-toxophore on lysine NH
B31: Example 266 (antibody, human IgG1, lambda)
heavy: B1 heavy with Q1E, E3Q
light: B1 light with D1E, I2S, A10V, T13A, G155A
modifications: linker-toxophore on lysine NH
B32: Example 267 (antibody, human IgG1, lambda)
heavy: B1 heavy with Q1E, E3Q
light: B1 light with D1E, I2S, A10V, T13A, G155A
modifications: linker-toxophore on lysine NH
B33: Example 268 (antibody, human IgG1, lambda)
heavy: B1 heavy with Q1E, E3Q
light: B1 light with D1E, I2S, A10V, T13A, G155A
modifications: linker-toxophore on lysine NH
B34: Example 269 (antibody, human IgG1, lambda)
heavy: B1 heavy with Q1E, E3Q
light: B1 light with D1E, I2S, A10V, T13A, G155A
modifications: linker-toxophore on cysteine S
B35: Example 270 (antibody, human IgG1, lambda)
heavy: B1 heavy with Q1E, E3Q
light: B1 light with D1E, I2S, A10V, T13A, G155A
modifications: linker-toxophore on lysine NH
B36: Example 271 (antibody, human IgG1, lambda)
heavy: B1 heavy with Q1E, E3Q
light: B1 light with D1E, I2S, A10V, T13A, G155A
modifications: linker-toxophore on cysteine S
B37: Example 272 (antibody, human IgG1, lambda)
heavy: B1 heavy with Q1E, E3Q
light: B1 light with D1E, I2S, A10V, T13A, G155A
modifications: linker-toxophore on cysteine S
B38: Example 373 (antibody, human IgG1, lambda)
heavy: B1 heavy with Q1E, E3Q
light: B1 light with D1E, I2S, A10V, T13A, G155A
modifications: linker-toxophore on lysine NH
B39: Example 385 (antibody, human IgG1, lambda)
heavy: B1 heavy with Q1E, E3Q
light: B1 light with D1E, I2S, A10V, T13A, G155A
modifications: linker-toxophore on cysteine S
B40: Example 386 (antibody, human IgG1, lambda)
heavy: B1 heavy with Q1E, E3Q
light: B1 light with D1E, I2S, A10V, T13A, G155A
modifications: linker-toxophore on lysine NH
B41: Example 387 Diastereomer 1 (antibody, human IgG1, lambda)
heavy: B1 heavy with Q1E, E3Q
light: B1 light with D1E, I2S, A10V, T13A, G155A
modifications: linker-toxophore on lysine NH
B42: Example 388 Diastereomer 2 (antibody, human IgG1, lambda)
heavy: B1 heavy with Q1E, E3Q
light: B1 light with D1E, I2S, A10V, T13A, G155A
modifications: linker-toxophore on lysine NH

Biological target: T1, C4.4a
Assay: cell-based or functional assay

| Binder | IC50 (nM) A549: C4.4a [nM] |
| --- | --- |
| B1 | 0.081 |
| B2 | 0.03 |
| B3 | 0.052 |
| B4 | 0.062 |
| B5 | 0.035 |
| B6 | 0.037 |
| B7 | 0.044 |
| B8 | 0.074 |
| B9 | 0.037 |
| B10 | 0.02 |
| B11 | 3 |
| B12 | 0.045 |
| B13 | 0.06 |
| B14 | 0.27 |
| B15 | 0.13 |
| B16 | 0.14 |
| B17 | 0.17 |
| B18 | 0.15 |
| B19 | 0.29 |
| B20 | 0.04 |
| B21 | 0.035 |

| Binder | IC50 (nM) A549: C4.4a [nM] |
| --- | --- |
| B22 | 0.036 |
| B23 | 0.018 |
| B24 | 0.062 |
| B25 | 0.06 |
| B26 | 0.1 |
| B27 | 0.1 |
| B28 | 0.3 |
| B29 | 0.1 |
| B30 | 0.2 |
| B31 | 3 |
| B32 | 0.03 |
| B33 | 0.05 |
| B34 | > 100 |
| B35 | 0.03 |
| B36 | 1 |
| B37 | 0.2 |
| B38 | 0.03 |
| B39 | 0.04 |
| B40 | 0.02 |
| B41 | 0.04 |
| B42 | 0.04 |

Reference: US20150246136A1 (Bayer, published 2015)
